Assay results reported in the RNAGym collection of RNA variant scans (doi:10.7554/elife.90254).
The source gives no read counts; variants with many changes may rest on few reads.

B1: LINE1-full (parent)
chain: UACGUAGGUGGUUUUCCCCUGAUAGUGCUAAGGGGGCCUGGAAGUUUGGACUGGGCAGAGCUCAACACAGCGUGGCAAAGUGGCUGUGGCUAGACUGCCUCUCUGGAUUCCUCGUCACUCAGCAGGGCAUCUCUGAGAGAAAUGCC

Variants of: B1
Experiment: self-cleavage, relative activity (ratio to wild type); higher = more cleavage; in vitro, sequencing; the parent is a self-cleaving ribozyme

Variant	self-cleavage
UAUGUAGGUGGUUUUCCCCUUAUAGUGCUAAGGGGGCCUGGAAGUUUGGACUGGCCAGAGCUCAACACAGCGUGGCAAAGUGGCUGUGGCUAGACUGCCUCUCUGGAUUCCUCGUCACUCAGCAGGGCAUCUCUGAGAGAAAUGCC [C3U G21U G55C]	0.04
UACGUAGGUGGUUUUCCCCUGAUAGUGCUAAGGGGGACUGGGAGUUUGGACUGGGCAGAGCUCAACACAGCGUGGCAAAGUGGCCGUGGCUAGACUGCCUCUCUGGAUUCCUCGUCACUCAGCAGGGCAUCUCUGAGAGAGAUGCC [C37A A42G U85C A141G]	0.36
UACGUAGGUGGUUUUCCCCAGAUAGUGCUAAGGGGGCCUGGAGGAUUGGACUGGGCAGAGCUCAACACAGCGUGGCAAAGUGGCUGUGGCUAGACUGCCUCUCUGGAUUCCUCGUCACUCAGCAGGGCAUCUCUGAGAGAAAUGCC [U20A A43G U45A]	1.75
UACGUAGGUGGUUUUCCCCUGGUAGUGCUAAGGGGGCCUGGAAGUUUGGACUGGGCAGAGCUCAACACAGCCUGGCAAAGUGGCUGUGGCUAGAUUGCCUCUCUGGAUACCUCGUCACUCAGCAGGGCAUCUCUGAGAGAAAUGCC [A22G G72C C95U U109A]	0.17
UACGUAGGUGGUUUUCCCCUAAUAGUGCUAAGGGGGCCUGGAAGUUGGGACUGGGCAGAGCUCAACACAGCGUGGCAAAGUGGCUGUGGCUAGACUGCCUCUCUGGAUUCCACGUCACUCAGCAGGGCAUCUCAGAGAGAAAUGCC [G21A U47G U112A U134A]	0.88
UACGUAGGUGGUUUUCCCCUGAUAGUGCUAAGGGGGCCUGGAAGUUUGGACUGGGCAGAGCUCAACACAGCGUGGCAAAGUGACUGUGGCUAGACUGCCUCUCUGGAUUCCUCGUCACUCAGCAGGGCACCCCUGGGAGAAAUGCC [G83A U130C U132C A136G]	1.21
UACAUAGGUGGUUUUCCCCUGAUAGUGCCAAGGGGGCCUGGAAGUUUGGACUGGGCUGAGCUCAACACAGCGUGGCAAAGUGGCUGUGGCUAGACUGCCUCUCUGGACUCCUCGUCACUCAGCAGGGCAUCUCUGAGAGAGAUGCC [G4A U29C A57U U108C A141G]	0.16
UACGUAGGUGGUUUUCCCCUGAUAGUGCUAAGGGGGCCAGGAAGUUUGGACUAGGCAGAGCUCAACACAGCGUGGCAAAGUGGCAGUGGCUAGACUGCCUCCCUGGAUUCCUCGUCACUCAGCAGGGCAUCUCUGAGGGAAAUACC [U39A G53A U85A U102C A138G G144A]	0.02
UACGUAGGUGGUCUUCCCCUGAUAGUGCUAAGGGGGCCUGGAAGUUUGGACUGGGCAGAGCUCAACACAGCGUGGCGAAGUGGCUGUGGCUAGACUGCCUCUCUGGAUACCUCGUCACUCAGCAGGGCAUCUAUGAGAGAAAUGCC [U13C A77G U109A C133A]	1.31
UACGUAGGUGGUUUUCCCCAGAUAGUGCUAAGGGGGCCUGGUAGUUUGGACUGGGCAGAGCUCAACGCAGCGUGGCAAAGUGGCUGAGGCUAGACUGCCUCUCUGGAUUCCUCGUCACUCAGCAGGGCAUCUCUGAGAGAAAUGCC [U20A A42U A67G U87A]	0.03
UACGUAGGUGGUUUUCCCCUGAUAGUGCUAAGGGGGCCUGGAAGUUUGGACUGGGCAGAGCUCGACACAGCGUGGCAAAGUGGCUGUGGCUAGACUGCCUCUCUGGAUUCCUCGUCACUCAGCAGGGCACCACUGAGAGAAAUGCC [A64G U130C U132A]	0.88
UACGUAGGUGGUUUUCCCCAGAUAGUGCUAAGGGGGCGUGGAAGUUUGGACUGGGCAGAGCUCAACACAGCGUGGCAAAGUGGCUGUGGCUAGUCUGCCUCUCUGGAUUCCUCGUCACUCAGCAGGGCAUCUCUGAGAGAAAUGCC [U20A C38G A94U]	0.39
UACGUAGGUGGUUUUCCCCUGAUAGUGCUAAGGGGGCCUGGAAGUUUGGACUGGGCAGAGCUCAACACAGCGUGGCGAAGUGGCUGUGGCUAGACUGCCUCUCUGGAUUCCUCGCCACUCAGCUGGGCUUCUCUGAGAGAAAUGCC [A77G U115C A124U A129U]	2.23
UUCGUAGGUGGUUUUCCCCUGAUAGUGCUAAGGGGGCCUGGAAGUUUGGACUGGGCAGAGCUCAACACAGCGUGGCAAAGUGGCUGUGGCUAGACUGCCUCUCAGGAUUCCUCGUCACUCAGCAGGACAUCUCUGAGAGAAAUGCC [A2U U104A G127A]	0.24
UACGUAGGUGGUUUUCCCCUGAUAGUGCUAAGGGGGCCUGGAAGUUUGGACUCGGCAGAGCUCAACACAGCGUGGCAGAGCGGCUGUGGCUAGACUGCCUCUCUGGAUUCCUCGUCACUCAGCAGGGCAUCUCUGAGAGAAAUGCC [G53C A78G U81C]	1.13
UACGUAGGUGGUUUUCCCCUGAUAGUGCUAGGGGGGCCUGGAAGUUUGGGCUGGGCAGAGCUCAACACAGCGUGGCAAAGUGGCUGUGGCUAGACUGCCUCUCUGGAUUCCUCGUCACUCAGCAGGGCAUCUCUGAGAGAGAUGCC [A31G A50G A141G]	0.78
UACGUAGGUGGUUUUCCCCUGAUAGUGCUAAGGGGGCCUGGAAGUUUGGACUGAGCUGAGCUCACCACAGCGUGGCAAAGUGGCUGUGGCUAGACUGCCUCACUGGAUUCCUCGUCACUCAGCAGGGCAACUCUGAGAGAAAUGCC [G54A A57U A65C U102A U130A]	0.03
UACGUAGGUGGUUUUCCCCUGAUAGUGCUAAGGGGGCCUGGAAGCUUGGACUGGGCAGAGCUCAACACAGCGUGGCAAAGUGGCUGUGGCUAGACUGCCUCUCUGGAUCCCUCGUCACUCAGCAGGGCAUCUCUGAGGGAAAUGCC [U45C U109C A138G]	0.51
UACGUAGGUGGUUUUCCCCUGAUAGAGCUAAGGGGGCCUGGGAGUUUGGACUGGGCAGAGCUCAACACAGCGUGGCAAAGUGGCUGUGGCUAGACUGCCUCUCUGGAUUCCUCGUCACUCAGCAGGGCAUCUCUGAGAGGAAUGCC [U26A A42G A140G]	0.2
UACGUAGGUGGUCUUCCCCUGAUAGUGCUAAGGGGGCCUGGUAGUUUGGACUGGGCAGAGCUCAACACAGCGUGGCAAAGUGGCUGUGGCUAGACUGCCUCUCUGGAUUCCUCGUCACUCAGCAGGGCAUCUCUGAGAGGAAUGCC [U13C A42U A140G]	0.87

Variant	self-cleavage
UACGUAGGUGGUUCUCCCCUGGCAGUGCUAAGGGGGCCUGGGAGUUUGGACUGGGCAGAGCUCAACACAGCGUGGCAAAGUGGCUGUGGCUAGACUGCCUCUCUGGAUUCCUCGUCACUCAGCAGGGCAUCUCUGAGAGAAAUGCC [U14C A22G U23C A42G]	0.61
UACGUAGGUGGUUAUCCCCUGAUAGUGCUAAGGGGGCCUGGAAGUUUGGACUGGGCAGAGCUCAACACAGCGUGGCAGAGUGGCUGUGGCUAGACUGCCUCUCUGGGUUCCUCGUCACUCAGCAGGGCAUCUCUGAGAGAAAUGCC [U14A A78G A107G]	1.67
UACGUAGGUGGUUUUCCCCUGAUAGUGCUAAGGGGGCCUGGAAGUUAGGGCUGGGCAGAGCUCAACACAGCGUGGCAAGGUGGCCGUGGCUAGACUGCCUCUCUGGAUUCCUCGUCACUCAGCAGGGCAUCUCUGAGAGAAAUGCC [U47A A50G A79G U85C]	0.29
UACGUAGGUGGUUUUCCCCUGAUAGUGCUAAGGGGGCCUGGAAGUUUGGACUGGGCAGAGCUCAACACAGCGUGGCAAAGUGGCUGUGGCUAGACUGCCUCUCUGGAUUCCUCGUUACUCAGCAGGGCACCUCUGAGAGAGAUGCC [C116U U130C A141G]	1.09
UACGUAGGUGGUUUUCCCCUGAUGGUGCUAAGGGGGCCUGGAUGUUUGGACUGGGCAGAGCUCAACACAGCGUGGCAAAGUGGCUGUGGCUAGACUGCCCCUCUGGAUCCCUCGUCACUCAGCAGGGCAUCUCUGAGAGAAAUGCC [A24G A43U U100C U109C]	0
UACGUAGGUGGUCUUCCCCUGAUAGUGCUAAGGGGGCCUGGAAGUUUGGACUGGGCAGAGCUCAACACAGCGUGGCAAAGUGGCUGUGGCUAGACUGCCUCUCUGGAUUCCUCGUCACUCAGCAGGGCAUCUCUGAGAGAGAAGCC [U13C A141G U143A]	0.93
UACGUAGGCGGUUUUCCCCUGAUAGUGCUAAGGGGGCCUGGAAGUUUGGACUGGGCAGAGCUCAACACAGCGUGGCAAGGUGACUGUGGCUAGACCGCCUCUCUGGAUUCCUCGUCACUCAGCAGGGCAUCUCUGAGAGAAAUGCC [U9C A79G G83A U96C]	0.18
UACGUAGGUGGUUUUCCCCUGAUAGUGCUAAGGGGGCCUGGAAGCUUGGACUGGGCAGAGCUCAACACGGCGUGGCAAAGUGGCUGUGGCUAGACUGCCUCUCUGGAUUCCCCGUCACUCAGCAGGGCAUCUCUGAGAGUAAUGCC [U45C A69G U112C A140U]	0
UACGUAGGUGGCUUUCCCCUGAUAGAGCUAAGGGGGCCUGGAAGUUUGGACUGGGCAGAGCUCAACACAGCGUGGCAAAGUGGCUGUGGCUAGACUGCCUCUCUGGAUUCCUCGUCACUCAGCAGGGAAUCUCUGAGAGAAAUGCC [U12C U26A C128A]	0.44
UACGUAGGUGGUUUUCCCCUGAUAGUGCUAAGGGGGCCUGGAAGUUUGGACUAGGCAGAGCUCAACACAGCGUGGCAAAGUGGCUGUGGCUAGACUGCCUCUCUUGAUUCCUCGUCACUCAGCGGGGCAUCCCUGAGAGAAAUGCC [G53A G105U A124G U132C]	1.42
UACGUAGGUGGUUUUCCCCUGAUAGUGCUAAGGGGGCCAGGAAGUUUGGACUGGGCAGAGCUCAACACAGCGCGGCAAAGUGGCUGUGGCUAGACUGCCUCUCUGGAUUCCUCGUCACUCAGCAGGGCACCUCUGAGAGAAAUGCC [U39A U73C U130C]	1.42
UACGCAGGUGGUUUUCCCCUGAUAGUGCUAAGGGGGCCUGGAAGUUUGGACUGGGCAGAGCUCAACACAGCGUGGCAAGGUGGCUGUGGCUAGACUGCCUCUCUGGAUUCCUCGUCACUCAGCAGGGCAUCUCUGAGGGAAGUGCC [U5C A79G A138G A142G]	2.09
UACGUAGGUGGUUUCCCCCUGAUAGUGCUAAGGGGGCCUGGAAGUUUGGACUGGGCAGAGCUCAACACAGCGUGGCAAAGUGGCUGUGGCUAGACUGCCUCUCCGGAUUCCUCGUCACUCAGCAGAGCAUCUCUGAGAGAAAUGCC [U15C U104C G126A]	1.49
UACGUAGGUGGUUUUCCCCUGAUAGUGCCAAGGGGGCCUGGAAGUUUGGACUGGGCAGAGCUCAACACUGCGUGGCAAAGUGGCUGUGGCUAGACUGCCUCUCUGGAUUCCUCGUCACUCAGCAGGGCUUCUCAGAGAGGAAUGCC [U29C A69U A129U U134A A140G]	0.1
UACGUAGGUGGUUUUCCCCUGAUAGUGCUAAGGGGGCCUGGAAGUUUGGACUGGGCAGUGCUCAACGCAGCGUGGCAAAGUGGCUGUGGCUAGACUGCCUCCCUGGAUUCCUCGUCACUCAGCAGGGCAUCUCUGAGAGAAAUGCC [A59U A67G U102C]	0.14
CACGUAGGUGGUUCUCCCCUGGUAGAGCUAAGGGGGACUGGAAGUUUGGACUGGGCAGAGCUCAACACAGCGUGGCAAAGUGGCUGUGGCUAGACUGCCUCUCUGGAUUCCUCGUCGCUCAGCAGGGCAUCUCUGAGAGAAAUGCC [U1C U14C A22G U26A C37A A117G]	1.53
UACGUAGGUGGUUUUCCCCUGAUAGUGCUAAGGGGGCCUGGAAGUCUGGACUGGGCAGAGCUCAGCACAGCGUGGCAAGGUGGCUGUGGCUAGACUGCCUCUCUGGAUUCCUCGUCACUCAGCAGGGCAUCUCUGAGGGAAAUGCC [U46C A65G A79G A138G]	0
UACGUAGGUGGUUUUCCCCUGAUAGUGCUAAGGGGGCCUGGAAGAUUGGACUGGGCAGAGCUCAACACAGCGUGGCAAAGUGGCUGUGGCUAGACUGCCUCUCUGGAUUCCUCGUCACUCUGCAGGGCAUCUCCGAGAGAAAUGCC [U45A A121U U134C]	1.15
UACGUAGGUGGUUUUCCCCUGAUAGUGCUAUGGGGGCCUGGAAGUUUGGACUGGGCAGAGCUCAACACUGCGUGGCAAAGUGGCUGUGGCUAGACUGCCUCUCUGGAUUCCUCGUCGCUCAGCAGGGCAUCUCUGAGAGAAAUGCC [A31U A69U A117G]	0.05
